# Reference: the RNAGym collection of RNA variant scans (doi:10.7554/elife.90254)
# The source gives no read counts; variants with many changes may rest on few reads.
# B1: OR4K15 (parent)
# chain: GUUAACGGUCAUAGGCCAUGGAAACUAGGAGCACCAUUUCGCUGCCAGUGAAGAAAUGAACAAAGAAAAUCUGGGCCAGGCAGGCAUCAAAAGAAAUAGUCUUGCGCUCAACCAGAAAGUCUGUAAUCAUUUUAAGGGUA
# Variants of: B1
# Assay: self-cleavage, relative activity (ratio to wild type); higher = more cleavage; in vitro, sequencing; the parent is a self-cleaving ribozyme
row,Variant,self-cleavage
1,A33G U37C A95G U102C,1.72
2,C34U A55G A59G A78U,0.24
3,A23G G74A A86G,0.1
4,U9C A23G U130C,0.83
5,A67G A82G U139A,0.55
6,A5U A52G A114G U120C,0.07
7,C16U U57C A140G,0.48
8,A52U A82G U120C U127C,0.13
9,U57C A68G A78G,0.22
10,A27U U102C A126G,1.78
11,A23G U37C A52G A62G,1.51
12,A33G A52G A54G U100C,1.47
13,U37C G75A A98U,0.07
14,U19A U57C A66U A118G A129U U131C,0.09
15,U9C A18G G79A A92G A111G U120C,0.01
16,U38A A54G A91U A117G,1.1
17,A59U A89G A94G,1.02
18,A23G A82U A91G A117G U120A,0.09
19,A23G A30U A55G U87C,0.78
20,A68G G79A A129G U132A,0.02
21,A52G A86G U97C A111G A114G,0
22,U2C U12C A24C A68G,1.05
23,A5G U87C A92C U139A,1.36
24,U12A U19C A22G A66C A114C,0

row,Variant,self-cleavage
1,A30G A64G A69G A92G,0.58
2,U9C A11G A55U A67U,0.65
3,A56U U57C A117G U120C,0.3
4,U2C A54G U70C A95G,0.88
5,U103C A111G A118G,0.01
6,A51G A60G A110G U131C,0.22
7,A24G A30G A54G,1.01
8,A18U U43C A67G A68G G84A U87A,0.9
9,U70C U87C U102C,1.02
10,U12C A24G U122C,0.5
11,U9C A11G U120A,1.54
12,U43C A89U U122A,1.4
13,A30G U38A U102C,1.76
14,A24G A118C U122C U127G,0.37
15,A64G A92G A126U,1.11
16,A68G U72C A90G A110G,0.03
17,U9A A51G A59G A63G,1.73
18,A18G A91G A96G A118G U124C,0.56
19,A60G A62G A63U U100C,2.09
20,U39C A62U A68U A82G,0.79
21,A30G A64U U100C,1.39
22,A30U A51G A98G,0.56
23,A24G A118G A129G,0.41
24,U19C A22G A52G A114U,0.07

row,Variant,self-cleavage
1,A22G A59G G99A A126G,0.04
2,A18G A54G A111G A114G,0.12
3,A5G A54C U108A A110C,0.02
4,A30G A96G U100G U132C,1.04
5,U49G A116G U133C,1.23
6,A5G A11G A69G U130C,0.77
7,A118G U127C U131C,0.76
8,A5G A33C A51G A129G,1.13
9,A18U U102C U133A,1.93
10,A11G A82G A117G,0.33
11,A18G A69G A126G,0.42
12,A51G A95G U102C U108C,0
13,A11G U12C A52G U130C,0.66
14,U9A A33U U43C A56G A96G,0.81
15,A23G A30U A51G A67G A90G,0.18
16,A51G A54G A59G A67G A96G,1.94
17,A55G A60G A110G A140G,0.15
18,A69G U72A U102C,0.26
19,A13G A54G A114U,0.19
20,A33G A62G U87C G119A,0.44
21,A30U A67U A90G A91U G99A A118G,0.49
22,A55G A67G A114G U120C,0.14
23,U43C A66G A92G A110G,0.06
24,A67G U72C U87C A94G,0.31

row,Variant,self-cleavage
1,U12G U87C A90G U100C,1.9
2,U2C C71A U132C,1.12
3,A30G A98G A117G,0.16
4,A13G U37C A55G,1.04
5,A27G U43C G44C,1.33
6,A60G A82U U108C A129G U130C,0.01
7,C6U A52U A86G A117G,1.55
8,U9C A116G U130C,0.15
9,U3C U37C U39C,1.37
10,A22G G75C U108C A116G G136A,0.02
11,G14A A23C U124A,1.01
12,A11G U127C U131C,0.47
13,U57C A62U A114G,0.18
14,A47U U108C U131C,0
15,A24G A33G A64C A94G,0.69
16,A11C G84A A92G,2.69
17,A62U A110U U122G,0.94
18,C77U G106A A118G,0
19,U9A A60G A89U,1.93
20,A4G G29A A67G,1.55
21,A30G A51G A55U A118G A126U U127C,0.17
22,C16A U108C A110U C112U A114U,0
23,A4U A30G A59G,0.68
24,U19C U37C U38C,1.55

row,Variant,self-cleavage
1,A27G A54G U70C A92G A96C,0.49
2,U12A A59U A78C A90G,0.08
3,A11U C32U A55G G104A,0.03
4,U57G U87C G115U,0.11
5,A5G U87A A110G,0.09
6,A68G U103C U108C A114U,0.02
7,U2C A11G A62G,1.3
8,C16U U100C U108C,0
9,U9C A63G U108A,0.06
10,A36U A94G U130C,1.34
11,A5G A69G A90G A135G,0.42
12,A5G A94U U100A G106A,0
13,U26C A27G U38C A94C A111U A118G,0.12
14,U2C U9A C40A,0.79
15,U2A U49C A59G,1.56
16,A56G A114G U132A,0.1
17,A23G A36G G123A,1.2
18,G115U A117G U132C,0.05
19,A90G A126G U127A,0.28
20,U12C A125G A126G,0.22
21,A4G A33U U39C A89G A140C,1.67
22,U2C A82G U124G,0.2
23,A33G A78G A86G A89G U103C,0.1
24,G14A A23C A86G A89G,1.22

row,Variant,self-cleavage
1,A60G A95G A96G U122C U130C U132C,0.85
2,A78G A94G U102C U120C,0.21
3,A5G A22G A78G,0.18
4,G14A A22G A118U U132C,0.6
5,U9C A33G A66G A78G A91G A92G G106C A117G U132C,0.01
6,A82G A86G A110G,0.04
7,C45G A67G A90G U122A,0.61
8,A11G A36C A59G A64U,1.31
9,A98G U102A U103A,0.02
10,A24G A30G A56C A69G A110G U120C,0.17
11,A18G U37C U49C,1.32
12,G7A A11U A63G,0.97
13,A33G G74C U100A,0.01
14,A18G U49C G65A A95G,1.72
15,A33G A59G U87C U100C,1.31
16,A5G G8U A62U U130C,0.47
17,A11G A51G A95G,0.61
18,U9C A62G A68G A95G A118U,0.91
19,U2C U9C A23G A33G A69G A91G,0.5
20,A36U A69G A78G,0.15
21,U9A U70C G137A,0.68
22,A11U U43C G79A A117U,0.04
23,G15A U43A A64G U102C U122C,2.63
24,U3A C16U U26C U108C U131C,0.02

row,Variant,self-cleavage
1,U49C A52G A64U A126G,1.11
2,A110G A116G A118G,0.02
3,A22G A118G U120C U131A,0.09
4,C45U A47G A134G,1.09
5,A22G A30G C61U,0.99
6,A11G A33G G58U A69G A90G,0.53
7,U43A A59G A64G,0.93
8,A64U A89G U124C U130C,0.22
9,A52G A94G C105U U131C,0.06
10,U9A A30G C105G,0.1
11,A27G A96G A118G,1.39
12,A4G U70A U130C,0.5
13,U43C A62G A66U U130C,0.56
14,U39C A54G A92G,2.49
15,A30G A55G A98G A140G,0.31
16,A63G U120C U132C,0.47
17,C107G U122C U127C,0.01
18,G28U A59U A96G U132C,1.61
19,U37C U87C A91G A96G,0.96
20,U9C U100C A126G,1.06
21,A5G A22G A55G U100C C109U,0.73
22,G31C U37C A60G A98U U124C,1.79
23,A24G G41U A118G,1.19
